Numbering of substitutions follows the chain as printed; changes in the protein carry UniProt numbers. This is one part of the list.
T1: RBFOX1 RRM (Homo sapiens, UniProt Q9NWB1 109-208)
T1 sequence: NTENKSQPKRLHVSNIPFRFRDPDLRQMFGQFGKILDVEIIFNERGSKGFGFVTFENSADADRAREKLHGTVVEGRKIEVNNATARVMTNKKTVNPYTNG

B1: CCAGCGC (DNA:RNA)
RNA: GGGAGACCGGAAUUCAGAUUGUCCCCAGCGCUUAAAUCCCGUCGUAGCCACCA
DNA 1: CAATCTGAATTCCGGTCTCCC
DNA 2: TGGTGGCTACGACGGGATT
B2: GGUAGUC (DNA:RNA)
RNA: B1 RNA with C25G, C26G, A27U, G28A, C29G, G30U
DNA 1: CAATCTGAATTCCGGTCTCCC
DNA 2: TGGTGGCTACGACGGGATT
B3: CUUUUAG (DNA:RNA)
RNA: B1 RNA with C26U, A27U, G28U, C29U, G30A, C31G
DNA 1: CAATCTGAATTCCGGTCTCCC
DNA 2: TGGTGGCTACGACGGGATT
B4: AGGAUUG (DNA:RNA)
RNA: GGGAGACCGGAAUUCAGAUUGUCCAGGAUUGUUAAAUCCCGUCGUAGCCACCA
DNA 1: CAATCTGAATTCCGGTCTCCC
DNA 2: TGGTGGCTACGACGGGATT
B5: GUGUUCC (DNA:RNA)
RNA: B4 RNA with A25G, G26U, A28U, U30C, G31C
DNA 1: CAATCTGAATTCCGGTCTCCC
DNA 2: TGGTGGCTACGACGGGATT
B6: GGUUAAA (DNA:RNA)
RNA: B4 RNA with A25G, G27U, A28U, U29A, U30A, G31A
DNA 1: CAATCTGAATTCCGGTCTCCC
DNA 2: TGGTGGCTACGACGGGATT
B7: GUUAGUG (DNA:RNA)
RNA: B4 RNA with A25G, G26U, G27U, U29G
DNA 1: CAATCTGAATTCCGGTCTCCC
DNA 2: TGGTGGCTACGACGGGATT
B8: GUGGGUG (DNA:RNA)
RNA: B4 RNA with A25G, G26U, A28G, U29G
DNA 1: CAATCTGAATTCCGGTCTCCC
DNA 2: TGGTGGCTACGACGGGATT
B9: GGGACCA (DNA:RNA)
RNA: B4 RNA with A25G, U29C, U30C, G31A
DNA 1: CAATCTGAATTCCGGTCTCCC
DNA 2: TGGTGGCTACGACGGGATT
B10: GCCAUAU (DNA:RNA)
RNA: B4 RNA with A25G, G26C, G27C, U30A, G31U
DNA 1: CAATCTGAATTCCGGTCTCCC
DNA 2: TGGTGGCTACGACGGGATT
B11: CAAUCUG (DNA:RNA)
RNA: B1 RNA with C26A, G28U, G30U, C31G
DNA 1: CAATCTGAATTCCGGTCTCCC
DNA 2: TGGTGGCTACGACGGGATT
B12: AACUGAC (DNA:RNA)
RNA: B4 RNA with G26A, G27C, A28U, U29G, U30A, G31C
DNA 1: CAATCTGAATTCCGGTCTCCC
DNA 2: TGGTGGCTACGACGGGATT
B13: UCUCGCA (DNA:RNA)
RNA: B1 RNA with C25U, A27U, G28C, C29G, G30C, C31A
DNA 1: CAATCTGAATTCCGGTCTCCC
DNA 2: TGGTGGCTACGACGGGATT
B14: UACAUGG (DNA:RNA)
RNA: B4 RNA with A25U, G26A, G27C, U30G
DNA 1: CAATCTGAATTCCGGTCTCCC
DNA 2: TGGTGGCTACGACGGGATT
B15: CAUACCA (DNA:RNA)
RNA: B1 RNA with C26A, A27U, G28A, G30C, C31A
DNA 1: CAATCTGAATTCCGGTCTCCC
DNA 2: TGGTGGCTACGACGGGATT
B16: ACGACUG (DNA:RNA)
RNA: B4 RNA with G26C, U29C
DNA 1: CAATCTGAATTCCGGTCTCCC
DNA 2: TGGTGGCTACGACGGGATT
B17: CUAUGGA (DNA:RNA)
RNA: B1 RNA with C26U, G28U, C29G, C31A
DNA 1: CAATCTGAATTCCGGTCTCCC
DNA 2: TGGTGGCTACGACGGGATT
B18: AGCGGCG (DNA:RNA)
RNA: B4 RNA with G27C, A28G, U29G, U30C
DNA 1: CAATCTGAATTCCGGTCTCCC
DNA 2: TGGTGGCTACGACGGGATT
B19: UGAGGAA (DNA:RNA)
RNA: B1 RNA with C25U, C26G, C29G, G30A, C31A
DNA 1: CAATCTGAATTCCGGTCTCCC
DNA 2: TGGTGGCTACGACGGGATT
B20: GUUGCGG (DNA:RNA)
RNA: B1 RNA with C25G, C26U, A27U, C31G
DNA 1: CAATCTGAATTCCGGTCTCCC
DNA 2: TGGTGGCTACGACGGGATT

Each binder was assayed against T1, RBFOX1 RRM (assay: EMSA; HiTS-Eq, 1 nM pool, 10 min; buffer printed only for the single-RNA assays: 10 mM Tris pH 7.5, 150 mM NaCl, 3.4 mM EDTA, 0.001% NP-40, 30 C). Settings: tags: His6 N-terminal (pET28a); label: 5' 32P.
How it was run: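 A pool of RNA with 7 randomized nucleotides, 5′-radiolabelled and with DNA-annealed flanks, was equilibrated at 1 nM for 10 min in 50 µL with purified RbFox RRM, wild type or mutant, across increasing protein concentrations. Free RNA was separated by 8% native PAGE, excised, reverse-transcribed, barcoded by PCR and sequenced. Relative association constants were obtained from read-count changes of each RNA species versus the control reaction and normalised to the cognate motif.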

Binder	binding signal
B1	0.00486 KA relative to UGCAUGU
B2	0.0157 KA relative to UGCAUGU
B3	0.0106 KA relative to UGCAUGU
B4	0.0293 KA relative to UGCAUGU
B5	0.0195 KA relative to UGCAUGU
B6	0.00176 KA relative to UGCAUGU
B7	0.0142 KA relative to UGCAUGU
B8	0.0301 KA relative to UGCAUGU
B9	0.00647 KA relative to UGCAUGU
B10	0.00334 KA relative to UGCAUGU
B11	0.00656 KA relative to UGCAUGU
B12	0.00667 KA relative to UGCAUGU
B13	0.0132 KA relative to UGCAUGU
B14	0.0106 KA relative to UGCAUGU
B15	0.00134 KA relative to UGCAUGU
B16	0.0123 KA relative to UGCAUGU
B17	0.00372 KA relative to UGCAUGU
B18	0.0189 KA relative to UGCAUGU
B19	0.00907 KA relative to UGCAUGU
B20	0.0134 KA relative to UGCAUGU
